# Test results as given in PubChem BioAssay (NCI).
#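 Cells were grown in 96-well plates and exposed to each compound for 48 hours at five concentrations; endpoints were interpolated linearly between bracketing concentrations, or set to the highest concentration if not reached. TGI: concentration producing complete growth inhibition.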 For part of its entries the source gives two or more results. They are shown here; other results are not. There may be further records. Results that share an entry are repeats (runs, samples, wells, individuals or studies). Records carry a tag for their origin. A, B and so on number the origins entry by entry.
# Test system: MDA-MB-468 breast
# Experiment: DTP human tumour cell line panel, 48 h
compound,measurement,value
NC1(c2ccc(-c3nc4ccn5c(=O)[nH]nc5c4cc3-c3ccccc3)cc2)CCC1,TGI,"179 nM [sample A, mean of 3 tests] and 1.87 µM [sample B, mean of 2 tests] and 1.96 µM [sample C, mean of 2 tests]"
